Source: PubChem BioAssay AID1346428 (National Center for Advancing Translational Sciences (NCATS), 2018)
About 1,200 (2.5%) of roughly 48,000 compounds were called active. About 2% were inconclusive and are not listed.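 The calls were made as follows: active = activation of at least 60% and not above a set upper limit (about 1 call in 100 departs from these limits); inconclusive = activation of 40% to 60%, or above that upper limit; inactive = activation under 40%.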 This is one part of the list.

Molecular target: Probable G-protein coupled receptor 32 (Homo sapiens) (UniProt O75388)
Test: qHTS for Agonists of Human Resolvin D1 Receptor DRV1; also: 0% is about no effect
Settings: CHO-K1 GPR32 beta-arrestin PathHunter luminescence, 90 min; at 76.9 µM; hits give high values; zero percent set by DMSO-only wells
Method in brief: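 Readings come from a cell-based beta-arrestin complementation format: CHO-K1 GPR32 stable cells (2,500/well) treated 90 min with compounds, then beta-Gal substrate added for 1 h before chemiluminescence imaging.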

Sequence of UniProt O75388 (O75388 whole entry, looked up): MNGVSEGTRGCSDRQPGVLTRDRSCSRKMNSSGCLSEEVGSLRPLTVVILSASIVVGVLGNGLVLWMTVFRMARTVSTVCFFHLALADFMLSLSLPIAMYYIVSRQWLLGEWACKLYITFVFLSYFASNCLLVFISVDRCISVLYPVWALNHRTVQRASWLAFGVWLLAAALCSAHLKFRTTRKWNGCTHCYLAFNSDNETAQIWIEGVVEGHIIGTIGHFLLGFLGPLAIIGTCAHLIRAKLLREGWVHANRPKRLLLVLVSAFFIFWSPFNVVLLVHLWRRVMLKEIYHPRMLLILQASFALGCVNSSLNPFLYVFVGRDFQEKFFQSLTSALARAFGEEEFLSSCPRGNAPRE

| SMILES | activation |
| --- | --- |
| COc1ccc(NC(=O)CSc2nc3ccccc3c(=O)n2CCC(=O)NC2CCCCC2)c(OC)c1 | inactive: -5.96% |
| CCC(=O)N1CCc2cc(S(=O)(=O)NC(Cc3ccccc3)C(=O)O)ccc21 (stereo unspecified) | inactive: -4.04% |
| Cc1ccc(S(=O)(=O)Nc2ccc3nc(-c4cccc(Cl)c4)oc3c2)cc1 | inactive: 5.27% |
| COc1ccc(CCNC(=O)C(C)n2nc(C)c3sc4ccccc4c3c2=O)c(OC)c1 (stereo unspecified) | inactive: -13.6% |
| O=C(CCCCCn1c(=O)c2sccc2n(Cc2ccccc2Cl)c1=O)NCc1ccc2c(c1)OCO2 | inactive: -28.8% |
| COc1ccc(C(=O)N(Cc2ccco2)Cc2ccc(C)o2)cc1 | inactive: -17.2% |
| Cc1cccc(-c2nc3nc(C)cc(NC(C)c4ccccc4)n3n2)c1 (stereo unspecified) | inactive: 5.35% |
| O=C(NCc1ccc(F)cc1)C(=O)NCC(c1ccc2c(c1)OCO2)N1CCOCC1 (stereo unspecified) | inactive: -13.9% |
| COc1ccc(NC(=O)C2CCCN(S(=O)(=O)c3c(C)[nH]c(=O)[nH]c3=O)C2)c(OC)c1 (stereo unspecified) | inactive: -8.25% |
| Cc1ccc2nc(-c3ccc(NC(=O)COc4ccc(Br)cc4Br)cc3)sc2c1 | inactive: -9.96% |
| COCCCNC(=O)c1cnc2sc(N3CCCCC3)nn2c1=O | inactive: 11.5% |
| CNC(=O)c1c(NC(=O)/C=C/c2ccccc2)sc2c1CCC2 | inactive: -16% |
| COc1cc(NS(=O)(=O)c2ccc(NC(=O)c3ccc(Cl)cc3Cl)cc2)nc(OC)n1 | inactive: 17.4% |
| CCOc1ccc(NC(=O)Cn2nnc(-c3nc(-c4ccncc4)no3)c2N)cc1 | inactive: -11.5% |
| Cc1nn2c(C)c(C(=O)NCCc3ccccc3)cnc2c1-c1ccccc1 | inactive: -10.5% |
| CCOC(=O)c1ccc(NC(=O)CC(=O)Nc2ccc3nc4n(c(=O)c3c2)CCCCC4)cc1 | inactive: -7.47% |
| CCc1ccc(NCc2cc3cc4c(cc3n(CC(=O)Nc3ccccc3C)c2=O)OCCO4)cc1 | inactive: -19.8% |
| Cc1ccccc1NC(=O)/C(C#N)=C/c1ccc(Cl)cc1Cl | inactive: 29.7% |
| COc1ccc(-c2nc3sc(CCNS(=O)(=O)c4ccccc4)c(C)n3n2)cc1 | inactive: 23.5% |
| CCCOc1ccc(C(=O)Nc2cc3c(cc2N2CCCCC2)n(C)c(=O)n3C)cc1 | inactive: -6.23% |
| O=C(NCC1CCN(Cc2ccccc2F)CC1)Nc1ccc(F)c(Cl)c1 | inactive: 6.41% |

| SMILES | activation |
| --- | --- |
| Cc1ccc2ncc3c(-c4ccc(F)cc4)nn(CC(=O)Nc4ccccc4C)c3c2c1 | inactive: -17% |
| Cc1ccc(S(=O)(=O)Cc2nc(-c3ccc(C(=O)NCCCOC(C)C)cc3)oc2C)cc1 | inactive: 17.2% |
| Cc1ccc2oc(C(=O)Nc3ccc(S(=O)(=O)Nc4nccc(C)n4)cc3)cc(=O)c2c1 | inactive: -0.797% |
| COc1ccc(Br)cc1CNC(=O)CN1C(=O)c2cccnc2Oc2ccc(C)cc21 | inactive: -4.22% |
| CC(C)c1ccc(N(CC(=O)O)S(=O)(=O)c2ccc3[nH]c(=O)c(=O)[nH]c3c2)cc1 | inactive: -7.06% |
| CSc1ncc2c(n1)-c1ccccc1N(Cc1ccccc1)S2(=O)=O | inactive: -10.9% |
| CSc1ccc(CCNC(=O)CCCn2c(=O)c3cccn3c3ccccc32)cc1 | inactive: -26% |
| CCOc1ccc(C(=O)Nc2cc3c(cc2N2CCCC2)n(C)c(=O)c(=O)n3C)cc1OCC | inactive: 10.4% |
| O=C1c2[nH]nc(-c3ccc(F)cc3)c2C(c2ccccc2F)N1c1ccccc1 (stereo unspecified) | active: 108% |
| Cc1ccc2[nH]c3c(=O)n(CC(=O)Nc4ccc(Br)cc4C)ncc3c2c1 | inactive: 2.13% |
| COc1ccc(N(CC(=O)Nc2cccc(C(C)=O)c2)S(=O)(=O)c2ccccc2)c(OC)c1 | inactive: -21.1% |
| Cc1cc(OCCCn2c(CCNC(=O)C3CCCCC3)nc3ccccc32)ccc1Cl | inactive: -5.84% |
| COc1ccc(-c2c3c(=O)n(C)c(=O)n(C)c3c3n2-c2ccccc2NC3c2ccc(O)cc2O)cc1 (stereo unspecified) | inactive: -19.2% |
| COc1ccc2c(Sc3ccc(C)cc3)c(C(=O)NCCc3ccccc3)[nH]c2c1 | inactive: 4.72% |
| O=C(CSc1nc(-c2cccs2)nc2cc(=O)[nH]n12)Nc1cccc(C(F)(F)F)c1 | inactive: -4.08% |
| CCOc1ccc(C(=O)N(Cc2cc(OC)c(OC)c(OC)c2)c2ccccn2)cc1 | inactive: 14.2% |
| OCc1cnc(SCc2ccc(F)cc2)n1Cc1ccc(F)cc1 | active: 109% |
| O=C(Nc1nc2n(n1)C(c1ccc(Cl)cc1)C=C(c1ccccc1)N2)c1ccco1 (stereo unspecified) | inactive: 7.18% |
| Cc1nn(C)c2c1c(C(F)(F)F)cc(=O)n2C(C)C(=O)NCCc1ccccc1 (stereo unspecified) | inactive: 3.76% |
| CCOC(=O)C1=C(C)NC(=O)NC1c1cn(-c2ccccc2)nc1-c1ccc(OC(C)C)cc1 (stereo unspecified) | inactive: -6.54% |
| COc1ccc(CCNC(c2ccc(F)cc2)c2nnc(-c3ccccc3Cl)o2)cc1OC (stereo unspecified) | inactive: -4.27% |

| SMILES | activation |
| --- | --- |
| O=C(CN1c2ccccc2S(=O)(=O)c2ccccc21)Nc1ccccc1Cl | inactive: -11.5% |
| O=C(Cn1cnc2onc(-c3ccc(F)cc3)c2c1=O)Nc1ccc(F)c(Cl)c1 | inactive: 19.3% |
| COc1ccccc1N(CC(=O)Nc1ccc2c(c1)OCO2)S(=O)(=O)c1ccc(C)cc1 | inactive: 3.03% |
| O=C(c1ccc(F)cc1)N1CCC(c2nc(-c3ccc(S(=O)(=O)N4CCCC4)cc3)no2)CC1 | inactive: -4.66% |
| CCCOc1ccc(-c2nonc2NC(=O)c2oc3ccc(Cl)cc3c2C)cc1OCCC | inactive: -1.57% |
| CCc1nn(CC(=O)NCCCN2CCN(CC)CC2)c(=O)c2cc3occc3n12 | inactive: -27.7% |
| CCOc1ccc(S(=O)(=O)c2cn(Cc3ccccc3C)c3ccc(OC)cc3c2=O)cc1 | inactive: -15.8% |
| CCc1cccc(NC(=O)C2Cc3ccccc3N2C(=O)c2ccccc2)c1 (stereo unspecified) | inactive: 2.74% |
| Cc1ccc2nc(COc3ccccc3NC(=O)c3ccccc3F)cc(=O)n2c1 | inactive: -6.52% |
| Cc1ccc2c(c1)c(CC(=O)Nc1ccc(C)c(F)c1)c(C(=O)O)n2C | inactive: -0.0721% |
| CCOc1cccc(C2c3[nH]c4ccccc4c3CCN2C(=O)CSCc2ccc(F)cc2)c1 (stereo unspecified) | inactive: -36.3% |
| O=C(c1ccc2c(c1)N(Cc1c(F)cccc1Cl)C(=O)c1ccccc1S2)N1CCOCC1 | inactive: -13.1% |
| CCOC(=O)N1CCN(Cc2nc3cc(NC(=O)C(C)C)ccc3n2C(C)C)CC1 | inactive: -6.48% |
| CCCNC(=O)c1ccc(-c2nc(CS(=O)(=O)c3ccc(C)cc3)c(C)o2)cc1 | inactive: 1.85% |
| COc1ccc(OC)c(NC(=O)CSc2ncc3c(n2)-c2ccccc2N(C)S3(=O)=O)c1 | inactive: -3.85% |
| O=C(C1COc2ccccc2O1)N(Cc1cccnc1)c1nc2c(Cl)cccc2s1 (stereo unspecified) | inactive: -7.47% |
| NC(=O)Cn1c(=O)n(CCCCCC(=O)NCc2ccc(F)cc2)c(=O)c2sccc21 | inactive: -11.4% |
| COc1ccc(-n2nnc(-c3nsc(NC(=O)c4cccs4)n3)c2C)cc1OC | inactive: -0.722% |
| CCS(=O)(=O)N1CC(=O)N(c2cc(C)ccc2C)C(C)(C(=O)NC2CCCCC2)C1 (stereo unspecified) | inactive: -3.68% |
| Cc1ccc(Cl)cc1NC(=O)N1CCC2(CC1)Oc1ccccc1C(=O)N2Cc1ccccc1F | inactive: -20.7% |
| COc1ccc(-c2cn3c(n2)sc2cc(C(=O)NC4CCCCCC4)ccc23)cc1 | inactive: -11.3% |

| SMILES | activation |
| --- | --- |
| Cc1cccc(NC(=O)C(=O)NCCc2sc(-c3ccccc3)nc2C)c1C | inactive: -0.561% |
| Cc1c(Cl)cccc1NC(=O)C(CCS(C)(=O)=O)N1Cc2ccccc2C1=O (stereo unspecified) | inactive: -10.9% |
| Cc1ccc(S(=O)(=O)c2c(Nc3cc(C)ccc3C)sc(C(=O)c3ccc4c(c3)OCO4)c2N)cc1 | inactive: -24.6% |
| CC(=O)c1c(C)oc2ccc(N(C(=O)Oc3ccccc3)S(=O)(=O)c3ccccc3)cc12 | inactive: -27.5% |
| CC1CCCN(c2c(S(=O)(=O)c3ccccc3)cnc3ccc(Cl)cc23)C1 (stereo unspecified) | inactive: -10.7% |
| CC(CNC(=O)c1cc(-c2ccccc2)n[nH]1)c1ccccc1 (stereo unspecified) | inactive: 13.6% |
| COc1ccc(CCN2C(=O)N(c3ccc(C)cc3)C(=O)C2CC(=O)Nc2ccc(F)cc2)cc1 (stereo unspecified) | inactive: -2.77% |
| Cc1nn(C(=O)COc2ccccc2Br)c(C)c1Sc1ccccc1 | inactive: 22.4% |
| Nc1cc(=O)nc(SCC(=O)Nc2ccc(F)cc2)n1-c1cccc(Cl)c1 | inactive: -2.24% |
| Cc1cccc(N2CCN(C(=O)c3c(C)oc4ncnc(N5CCOCC5)c34)CC2)c1C | inactive: -11% |
| COc1ccc(C)cc1NC(=O)c1cc(S(=O)(=O)N2CCC(C)CC2)cn1C | inactive: -9.5% |
| O=C(OCC1(COC(=O)c2cccnc2)CCCC(COC(=O)c2cccnc2)(COC(=O)c2cccnc2)C1O)c1cccnc1 | inactive: 9.04% |
| COc1ccc(CN2C(=O)N(c3ccc(F)cc3)C(=O)C2CC(=O)Nc2cc(OC)cc(OC)c2)cc1 (stereo unspecified) | inactive: -9.92% |
| CCc1ccc(NC(=O)C(NS(=O)(=O)c2cccc3nsnc23)c2ccccc2)cc1 (stereo unspecified) | inactive: -34.5% |
| COc1ccc2c(CNCc3ccccc3OC)c(C(=O)O)n(Cc3ccc(F)cc3Cl)c2c1 | inactive: -5.63% |
| CCc1ccc(NC(=O)C2CCC(CNS(=O)(=O)c3ccc4c(c3)C(C)(C)C(=O)N4C)CC2)cc1 (stereo unspecified) | inactive: -6.07% |
| Cc1cccc(NC(=O)c2sc3nc(-c4ccccc4)cn3c2C)c1C | inactive: -9.18% |
| COc1cccc(NC(=O)c2sc3nc(C)c(C(=O)Nc4ccc(Cl)cc4)c(-c4ccc(Br)cc4)c3c2N)c1 | inactive: -15.2% |
